In PubChem BioAssay AID1508623 (National Center for Advancing Translational Sciences (NCATS), 2021):
About 450 (0.94%) of roughly 48,000 compounds were called active. Another 19% or so got no clear call; they are omitted. The call rests on the fitted dose curve; in most records, active means well fitted inhibition curve with a large enough effect; inconclusive means small, poorly fitted or top-dose-only effect; inactive means no such curve, though single readings can be large or run the other way. The list shows a part of the results.

Assay: Primary qHTS for Identification of Small Molecule Inhibitors of Huntingtin Promoter Activity; further: nearly all actives have a fitted effect of over 50% in size
Conditions: HEK293 HTT promoter firefly luciferase reporter (activity 0% = vehicle and -100% = no light), 24 h; series mostly up to 57.5 µM; activity change, negative = inhibition: at the top concentration
Procedure, shortened: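 Quantitative HTS used concentration series of up to 57.5 uM final on HEK293 luciferase reporter cells, 24 h at 37 degrees C. Readout was Dual-Glo firefly luminescence.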

Activity change, negative = inhibition, inactive:
O=C(NCCCc1nc2ccccc2n1Cc1ccccc1)C1CCCCC1 -29%
Cc1ccccc1OCc1ccc(-c2nc(C#N)c(N3CCN(c4ccccc4)CC3)o2)o1 -23.3%
CCOc1ccc(CNC(=O)c2ccc(NC(=O)N3CCSc4ncccc43)cc2)cc1OC -16.4%
COc1cccc(Cn2c(C)c(CNCc3ccccc3Cl)c(C(=O)O)c2C)c1 12.4%
CN(C)c1cc2c(cc1NC(=O)c1ccc(F)cc1)n(C)c(=O)n2C -10.7%
CCc1ccc(-c2cc(C)no2)cc1S(=O)(=O)Nc1ccc(C)cn1 -35.3%
Cc1cccc(-c2nnn3c2nc(NCc2ccccc2)c2ccccc23)c1 15.7%
CC(C)CCNC(=O)C1CCN(S(=O)(=O)c2cccc3nsnc23)CC1 -4.98%
CNC(=O)C1CCN(Cc2cc3ccccc3n2Cc2cccc(C)c2)CC1 -4.44%
CCc1ccc(-n2nc(CO)c(C(=O)NCC(c3ccccc3)c3ccccc3)n2)cc1 -0.591%
Cc1ccc(N(Cc2cc3ccccc3[nH]c2=O)C(=O)c2cccc(Cl)c2)cc1 -23.7%
CCN(CC)CCCNC(=O)CSc1nc2nc(C)c(Cc3c(F)cccc3Cl)c(C)n2n1 -8.62%
Cc1ccc(-c2cn3c(n2)sc2cc(C(=O)NCc4cccs4)ccc23)c(C)c1 4.2%
CC(C)NC(=O)C(c1ccccc1)N1Cc2ccccc2C1=O (configuration not stated) -18.9%
CC(C)c1ccc2occ(CC(=O)Nc3ccccc3Cl)c2c1 -10.8%
Cc1ccc(C)c(NC(=O)Cn2c(=O)n(Cc3ccc4c(c3)OCO4)c(=O)c3oc4ccccc4c32)c1 -15.6%
CC1=C(C(N)=O)C(c2cccc(C)c2)n2nc(-c3cccc(C)c3)nc2N1 (configuration not stated) -17%
CCCc1nc2c(C)cc(-c3nc4ccccc4n3C)cc2n1Cc1ccc(-c2ccccc2C(=O)O)cc1
Cc1ccc(CSc2nnc(-n3c(=O)c(C#N)cc4c(=O)n5cc(C)ccc5nc43)s2)cc1 -23.9%
COc1ccc(-c2noc(CSc3nc(C)cc(=O)[nH]3)n2)cc1OC -20.2%
CCCCOC(=O)c1ccc(O)cc1 7.69%
OCCC#Cc1nc(-c2ccc(F)cc2)c(-c2ccncc2)n1CCCc1ccccc1 -15.3%
Cc1ccc(CNC(=O)c2cc(-c3ccc(C)cc3)nc3n[nH]c(-c4ccc(F)cc4)c23)cc1 -16.2%
CNCCCCOc1ccccc1Cc1ccccc1 -16.4%
CC(C)C1N=C2c3ccccc3N=C(SCC(=O)NCc3ccccc3Cl)N2C1=O (configuration not stated) -24.5%
COCCCOc1cc(C[C@@H](C[C@H](N)[C@@H](O)C[C@H](C(=O)NCC(C)(C)C(N)=O)C(C)C)C(C)C)ccc1OC
COc1ccc(OC)c(CNC(=O)c2c(C)oc3ncn(C)c(=O)c23)c1 -3.27%
COc1ccc(N2CC(NC(=O)c3ccco3)CC2=O)cc1OC (configuration not stated) -8.26%
COc1ccc(CNC(=O)c2ccc3c(c2)N(Cc2ccccc2C)C(=O)c2ccccc2S3=O)cc1 (configuration not stated) -17.1%
O=C(NCc1ccc(F)cc1)C1CCN(c2ncnc3c2nc2n3CCCCC2)CC1 -0.992%
COc1ccc(CNc2oc(/C=C/c3cccc(OC)c3)nc2C#N)cc1 -15.3%
Nc1ccccc1N 32.6% [at 116 µM]
COc1cc(C(CC(=O)Nc2cc(C)ccc2C)N2Cc3ccccc3C2=O)cc(OC)c1OC (configuration not stated) -21.5%
CC(=O)c1ccc(NC(c2ccc(F)cc2)c2nnc(-c3ccccc3)o2)cc1 (configuration not stated) 1.55%
CC(C)(C)OC(=O)N1CCC(c2c(C(=O)N3CCN(c4ccccn4)CC3)cnn2-c2ccccc2Cl)CC1 -9.17%
CCOCCCNC(=O)c1cn(CC)c2ccc(S(=O)(=O)N3CCc4ccccc4C3)cc2c1=O -7.58%
Cc1ccc2nc(-c3ccncc3)c(Nc3ccc(C(C)C)cc3)n2c1 -16.7%
CCc1ccc(Nc2sc(C(=O)c3ccccc3)c(N)c2S(C)(=O)=O)cc1 -21.3%
CCOCCc1nn2c(=O)cc(COC(=O)CNC(=O)c3ccc(F)cc3)nc2s1 -8.9%
COC(=O)c1c(-c2cccs2)csc1NC(=O)c1cc(OC)c(OC)c(OC)c1 -22%
CC(C)CCNC(=O)c1nn(C)c2c1CSc1ccccc1-2 6.58%
COc1ccc(-n2ccn(CC(=O)Nc3ccc(C)c(C)c3)c(=O)c2=O)cc1OC -15.3%
COc1ccc(-c2cn3c(n2)sc2cc(C(=O)Nc4ccc(F)cc4Cl)ccc23)cc1 24.4%
CCOc1cc2[nH]c(=O)n(CCCC(=O)NCc3ccc(OC)cc3)c(=O)c2cc1OCC -6.09%
Cc1ccc(F)cc1NC(=O)CCSc1nc(-c2ccco2)cc(C(F)(F)F)n1 -23.9% [at 11.5 µM]
CC1=CC(=O)c2ccccc2C1=O
CCN(C(=O)c1cc2cc(Br)cc(OC)c2oc1=O)c1ccccc1 -12.9%
O=C(NC1CCCCCC1)c1ccc(CS(=O)c2ccc(Br)cc2)o1 (configuration not stated) -32.4%
COc1cccc(C2c3c(-c4ccccc4O)n[nH]c3C(=O)N2Cc2cccnc2)c1 (configuration not stated) -24.7%
CCc1ccccc1NC(=O)Cn1c(=O)n(-c2ccc(C)c(C)c2)c(=O)c2oc3ccccc3c21 -5.78%
COc1ccc(CCNc2nc3ccccc3c3nc(-c4cccc(C)c4)nn23)cc1OC 27%
Cc1ccc(CCNC(=O)c2cccc(Nc3nc4ccccc4nc3-n3nc(C)cc3C)c2)cc1 -9.35%
COc1ccc(S(=O)(=O)NCCc2sc(-c3cccc(C)c3)nc2C)cc1 -29.7%
Cc1nn(CC(=O)N2CCN(c3cccc(Cl)c3)CC2)c(=O)c2c1sc1ccccc12 -9.49%
CC(C)CCNC(=O)c1ccc(Cn2c(SCC(N)=O)nc3ccccc3c2=O)cc1 -1.98%
O=C1COc2cc(S(=O)(=O)CCC(=O)N3CCN(c4ccccc4)CC3)c(Cl)cc2N1 -20.9%
Cc1ccc(S(=O)(=O)NCCc2nnc3ccc(SCC(=O)Nc4ccc(OC(F)(F)F)cc4)nn23)cc1 -21.5%
CCCc1ccc(-c2ccc(C(=O)Oc3ccc(Br)cc3)cc2)nc1 1.28%
CCOc1ccc(NC(=O)Cn2c(=O)c(CNc3ccccc3)cc3cc4c(cc32)OCCO4)cc1 -25.4%
COC(=O)c1ccc(CSc2nc3c([nH]c4ccccc43)c(=O)n2-c2cc(C)cc(C)c2)o1 -23.5%
CN(C(=O)Cn1ncc2c1-c1ccccc1OC2)c1ccc(Br)cc1 -25%
N=C(N)N1CCc2ccccc2C1 -1.08% [at 6.01 µM]
